B1: CPEB3 Ribozyme (parent)
chain: UAACAGGGGGCCACAGCAGAAGCGUUCACGUCGCAGCCCCUGUCAGAUUCUGGUGAAUCUGCGAAUUCUGCUGUAUAUCUC

The source gives no read counts; variants with many changes may rest on few reads.

In the series the parent is B1. As to the kind of experiment: self-cleavage, relative activity (ratio to wild type); higher = more cleavage; in vitro, sequencing. In outline:
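After error-prone PCR and barcoding, CPEB3 ribozyme mutant libraries were transcribed with T7 RNA polymerase at 37°C for 5 hours, then given 15 min with DNase I before an EDTA stop, and they cleaved during both steps. Reverse transcription with template switching preceded Illumina sequencing. Relative activity divides a variant's cleaved/total read fraction by the unmutated ribozyme's. At least 5 reads were required per variant, and three batches were averaged.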
In the case of UAACAGGGGGCCGCAGCAGAAGCGUUCACGUCGCAGCCCCAGUCAGAUUCUGGUUAACCUGCGAAUUCUGCUGUAUAUCUC [A13G U41A G55U U58C], the self-cleavage stood at 0.16. Regarding UAACAGGGGGCCGCAGCAGAAGCGUUCACGACGCAGCCCCUGUCAGAUUCUGGUGAAUCUGCGAAUUCUGCUGUAUACCUC [A13G U31A U78C], the self-cleavage came out at 0.37. UAACAGGGGGCCGCAGCAGAAGCGUUCACGUCGCAGCCCCAGUCAGAUUCUGGUGAAUCUGCGAUUUCUGCUGUAUAUCUC [A13G U41A A65U]: the self-cleavage is 0.17. Turning to UAACAGGGGGCCGCAGCAGAAGCGUCCACGUCGCAGCCCCUGUCAGAUUCUGGUGAACCCGCGAAUUCUGCUGUAUAUCUC [A13G U26C U58C U60C], the self-cleavage was 0.27. For UAACAGGGGGCCGCAGCAGAAGCGUUCACGCCGCAGCCCCCGUCAGAUUCUGGUGAACCUGCGAAUUCUGCUGUAUAUCUC [A13G U31C U41C U58C], the self-cleavage is 0.14. With UAACAGGGGGCCGCAGCAGAAGCGUUCACGACGCAGCCCCCGUCAGAAUCUGGUGAAUCUGCGAGUUCUGCUGUAUAUCUC [A13G U31A U41C U48A A65G] the figure was 0.28.

As to UAACAGGGGGCCGCAGCAGAAGCGUUCACGUCGCAGCCCCUGACAGGUUCUGGCGAGUCUGCGAAUUCUGCUGUAUACCUU [A13G U43A A47G U54C A57G U78C C81U], the self-cleavage was 0.1. UAACAGGGGGCCGCAGCAGAAGCGUUCACGCGGCAGCCCCUGUCAGAUUCUGGUGAAUCUGCAAAUUCUGCUGUAUAUCUC [A13G U31C C32G G63A]: the self-cleavage was determined as 0.14. Turning to UAACAGGGGGCCGCAGCAGAAGCGUUCACGUCGCAGCCCCAGUCAGAUUCUGGUGAAUCAGCGAAUUCUGCUGUAUAUCUC [A13G U41A U60A], the self-cleavage is 0.21. For the variant UAACAGGGGGCCGCAGCAGAAGCGUUCACGUCGCAGCCCCCGUCGGAUUCUCGUGAAUCUGCGAAUUCUGCUGUAUAUCUC [A13G U41C A45G G52C], the self-cleavage was 0.29.

In the case of UAACAGGGGGCCGCAGCAGAAGCGUUCACGUCGCAGCCCCCGUCAGAUUCUGGUGAAUCUGCGAAUUCCGCUGUAAAUCAC [A13G U41C U69C U76A U80A], the self-cleavage is 0.26.

As to UAACAGGGGGCCGCAGCAGAAGCGUUCACGCCGCAGCCCCCGUCAGAUUCUGGUGAAUUCGCGAAUUCUGCUGUAUAUCUC [A13G U31C U41C C59U U60C], the self-cleavage came out at 0.19. UAACAGGGGGCCGCAGCAGAAGCGUUCACGUCGCAGCCCCCGUCAGAUUCUGGUGAAUCUGCGAAUUCUGCAGUAUAUCUC [A13G U41C U72A]: the self-cleavage turned out to be 0.16. The figure for UAACAGGGGGCCGCAGCAGAAGCGUUCACGGCGCAGCCCCUGUCAGAUUCAGGUGAAUCUGCGAAUUCUGCCGUAUAUCUC [A13G U31G U51A U72C] is 0.54; for UAACAGGGGGCCGCAGCAGAAGCGUUCACGACGCAGCCCCUGUCAGAUUCUGGUGAAUCUGCGGACUCUGCUGUAUAGCUC [A13G U31A A64G U66C U78G] it is 0.05. The figure for UAACAGGGGGCCGCAGCAGAAGCGUUCACGUCGCAGCCCCAGUCAGAUUCUGGUUAACCUGCGAAUUCUGCUGAAUAUCUC [A13G U41A G55U U58C U74A] is 0.24; for UAACAGGGGGCCGCAGCAGAAGCGUUCACGUCGCAGCCCCCGUCAGAUUCUGGUGAAUCUGCGAAUUCUGCUGAAUAUCUC [A13G U41C U74A] it is 1.09. In the case of UAACAGGGGGCCGCAGCAGAAGCGUUCACGUCGCAGCCCCUGACAGAUUCUGGUGGAUCUGCGAAUUCUGCUGUAUAUCCC [A13G U43A A56G U80C], the self-cleavage was 0.89. With UAACAGGGGGCCGCAGCAGAAGCGUUCACGUCGCAGCCCCAGUCAGAUUCUGGUGGAUCUGCGAAUUCUGCCGAAUAUCUC [A13G U41A A56G U72C U74A], the self-cleavage stood at 0.49. On to UAACAGGGGGCCGCAGCAGAAGCGUUCACGUCGCAGCCCCUGACAGAUUCUGGUGAAUCUGUGAAUUCUGCUGUGUAUCAC [A13G U43A C62U A75G U80A], for which the self-cleavage was 0.12. The figure for UAACAGGGGGCCGCAGCAGAAGCGUUCACGACGCAGCCCCUGUCAGAUACUGGUGAAUCUGCGAAUUCUGCUGUACAUCUC [A13G U31A U49A U76C] is 0.42; for UAACAGGGGGCCGCAGCAGAAGCGUUCACGUCGCAGCCCCAGUCAGAGUCUGGUGAGUCUGCGAAUUCCGCUGUAUAUCUC [A13G U41A U48G A57G U69C] it is 0.04; for UAACAGGGGGCCGCAGCAGAAGCGUUCACGUCGCAGCCCCCGUCAGAUUCUGGUGAAUCUGCGAAUUCUGCUGUAUGUCUC [A13G U41C A77G] it is 0.89. Consider UAACAGGGGGCCGCAGCAGAAGCGUUCACGCCGCAGCCCCUAUCAGAUUCUGGUGAAUCUGCGAACUCUGCUGUAUAUCUC [A13G U31C G42A U66C], for which the self-cleavage was determined as 0.16. With UAACAGGGGGCCGCAGCAGAAGCGUUCACGUCGCAGCCCCAGUCGGAUUCUGGUGAAUCUGCGAAUUCUGCUGUAUAUCUC [A13G U41A A45G], the self-cleavage worked out at 0.25. With UAACAGGGGGCCGCAGCAGAAGCGUCCACGUCGCAGCCCCUGUCAGAUUCUGGUGAAUCUGCGAAUUCUGCUGCGUAUCUC [A13G U26C U74C A75G] the figure was 0.38. On to UAACAGGGGGCCGCAGCAGAAGCGUUCACGUCGCAGCCCCAGUCAGAUUCUGGCGAGUCUGCGAAUUCUGCUGUAUAUCUC [A13G U41A U54C A57G], for which the self-cleavage was 0.32.

Consider UAACAGGGGGCCGCAGCAGAAGCGUCCACGUCGCAGCCCCUGUCAGAUUCUGGUGAAUCUGCGAAUUCUGCAGUAUACCUC [A13G U26C U72A U78C], for which the self-cleavage is 0.22. With UAACAGGGGGCCGCAGCAGAAGCGUUCACGUCGCAGCCCCUGCCAGAUUCUGGUGAAUCUGCGAAUUCCGCUGUAUAUCUC [A13G U43C U69C] the figure was 0.09. As for UAACAGGGGGCCGCAGCAGAAGCGUUCACGACGCAGCCCCUGUCAGGUUCUGGUGAAUCUGGGAGUUCUGCUGUAUAUCUC [A13G U31A A47G C62G A65G], the self-cleavage was determined as 0.07. The figure for UAACAGGGGGCCGCAGCAGAAGCGUUCACGACGCAGCCCCUGUCAGAUUCUGGUGAAUCUGCGAAUUCCGCUGUAUAUCUC [A13G U31A U69C] is 0.16. With UAACAGGGGGCCGCAGCAGAAGCGUUCACGUCGCAGCCCCCGUCAGAUUCUGGUGAAUCUGCGAUUUCCGCUGUAUAUCAC [A13G U41C A65U U69C U80A] the figure was 0.22; with UAACAGGGGGCCGCAGCAGAAGCGUUCACGCCGCAGCCCCUGUCAGAUUCUGGUGAAUCUGCGAAUUCCACUGUAUAUCCC [A13G U31C U69C G70A U80C], 0.08; with UAACAGGGGGCCGCAGCAGAAGCGUUCACGUCGCAGCCCCCGUCAGAUUCUGGUGAAUCUGCGAACUCUGCUGUAUAUCUC [A13G U41C U66C], 0.28.

Values taken from the RNAGym collection of RNA variant scans (doi:10.1093/nar/gkz1192).
